These results are taken from PMC4336329 (PLoS ONE, 2015).

Out of some 310,000 compounds screened, about 2,200 (0.71%) showed an effect of 50% or more. Effects have a minus sign here. Some of the results follow.

Chain of human ether-à-go-go-related gene (hERG) potassium channel (Q12809 whole entry, looked up): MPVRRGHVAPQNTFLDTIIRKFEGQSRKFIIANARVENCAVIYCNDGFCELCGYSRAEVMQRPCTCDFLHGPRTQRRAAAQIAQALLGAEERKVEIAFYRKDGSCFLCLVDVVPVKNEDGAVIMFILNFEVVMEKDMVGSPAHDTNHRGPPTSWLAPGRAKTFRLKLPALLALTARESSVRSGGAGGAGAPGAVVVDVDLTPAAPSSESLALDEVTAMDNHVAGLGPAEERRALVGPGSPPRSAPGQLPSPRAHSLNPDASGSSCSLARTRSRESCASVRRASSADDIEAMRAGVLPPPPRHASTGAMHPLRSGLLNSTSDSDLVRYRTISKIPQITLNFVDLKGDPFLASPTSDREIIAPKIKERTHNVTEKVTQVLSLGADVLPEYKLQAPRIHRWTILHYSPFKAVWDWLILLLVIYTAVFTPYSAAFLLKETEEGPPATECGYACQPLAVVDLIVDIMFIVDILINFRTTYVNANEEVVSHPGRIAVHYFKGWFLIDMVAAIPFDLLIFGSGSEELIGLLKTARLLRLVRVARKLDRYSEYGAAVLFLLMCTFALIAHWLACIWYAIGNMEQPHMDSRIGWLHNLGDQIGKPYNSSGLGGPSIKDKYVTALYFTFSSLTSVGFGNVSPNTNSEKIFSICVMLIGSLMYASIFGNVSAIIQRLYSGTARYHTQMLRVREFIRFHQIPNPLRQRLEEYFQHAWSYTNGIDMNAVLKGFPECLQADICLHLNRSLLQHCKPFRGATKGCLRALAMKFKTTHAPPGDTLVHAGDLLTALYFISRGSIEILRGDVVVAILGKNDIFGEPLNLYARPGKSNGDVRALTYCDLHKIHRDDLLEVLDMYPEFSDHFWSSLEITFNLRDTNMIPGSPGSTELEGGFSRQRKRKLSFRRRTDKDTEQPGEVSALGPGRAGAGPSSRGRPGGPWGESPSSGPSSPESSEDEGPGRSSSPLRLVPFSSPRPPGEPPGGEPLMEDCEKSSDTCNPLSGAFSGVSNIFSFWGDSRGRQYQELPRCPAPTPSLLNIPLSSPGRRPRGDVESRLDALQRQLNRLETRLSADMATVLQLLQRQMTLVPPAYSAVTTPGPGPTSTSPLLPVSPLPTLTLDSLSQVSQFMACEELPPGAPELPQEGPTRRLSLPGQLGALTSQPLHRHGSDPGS

This experiment addresses human ether-à-go-go-related gene (hERG) potassium channel (human, UniProt Q12809). The experiment in a line: primary screen, population patch clamp on CHO cells stably expressing hERG.
For `OC1(C2(O)CC(c3ccccc3)ON2)CCCCC1` (centres unmarked), the “hERG current change (%, negative = inhibition) at 1uM” value is 8.29%.
As for `Cc1ccc(C)c(OCCC(=O)N(C)CC(=O)Nc2c(C)cccc2C)c1`, the “hERG current change (%, negative = inhibition) at 1uM” value was 7.74%.
Regarding `CCO/C=C1/C(=O)N(CC)c2ccccc21`, the “hERG current change (%, negative = inhibition) at 1uM” value is recorded as -2.38%.
For the molecule `O=C(c1ccc(-n2cnnn2)cc1)N1CCOCC1`, the “hERG current change (%, negative = inhibition) at 1uM” value is given as 1.95%.
As to `CCCCC(CC)CNS(=O)(=O)c1ccc2c(c1)CCN2C(=O)CCC(=O)O` (centres unmarked), the “hERG current change (%, negative = inhibition) at 1uM” value is recorded as -7.11%.
Turning to `Cn1c(=O)c2c(ncn2CC(=O)N(Cc2ccccc2)c2ccccn2)n(C)c1=O`, the “hERG current change (%, negative = inhibition) at 1uM” value is on record as -7.98%.
Turning to `Clc1ccc(Cn2cc(/C=N/n3cnnc3)c3ccccc32)cc1`, the “hERG current change (%, negative = inhibition) at 1uM” value is 3.49%.
The same measure for `Cc1c(N(C(=O)Cc2cccs2)C2(C(=O)NC3CCCC3)CCCCC2)c(=O)n(-c2ccccc2)n1C`: -2.88%; for `C/C(CC(C)C)=N\NC(=O)Nc1ccccc1`: -7.03%.
Then `Cc1nc2cc(N3CCOCC3)c(NC(=O)C3CC3)cc2c(=O)n1Cc1ccccc1`, with -11.2%; and `CC1=Nn2c(nnc2-c2cc(-c3ccccc3)n[nH]2)SC1`, with 3.72%; and `O=C(CCN1C(=O)c2cccc3cccc(c23)C1=O)NCc1cccnc1`, with 3.56%.
`COc1cccc(OC)c1C(=O)N1CCN(Cc2ccc3c(c2)OCO3)CC1`: the “hERG current change (%, negative = inhibition) at 1uM” value is listed as -0.604%.
With `CS(=O)(=O)N1CCc2cc(C(=O)Nc3ccc(O)cc3)ccc21`, the “hERG current change (%, negative = inhibition) at 1uM” value is 13.2%.
On to `O=C(Nc1ccccc1N1CCCCC1)c1cccc(Cl)c1`, for which the “hERG current change (%, negative = inhibition) at 1uM” value is 13.8%.
As to `CNS(=O)(=O)c1cccc(C(=O)OC2CCOC2=O)c1` (centres unmarked), the “hERG current change (%, negative = inhibition) at 1uM” value stood at 9.68%.
Then `O=C(NC1CCCCCCC1)c1cccs1`, with 12.6%; and `Cc1ccsc1C(=O)NNC(=O)c1ccc(NS(=O)(=O)c2cccs2)cc1`, with 17.2%; and `COc1ccccc1N1CCN(C2CCCN(C(=O)CCN3CCCCO3)C2)CC1` (centres unmarked), with 12.6%.
The same measure for `CN(C)c1ccc(C(C(=O)NC2CCCCC2)N(Cc2ccco2)C(=O)c2snc(C(N)=O)c2N)cc1` (centres unmarked): 1.21%; for `O=C(O)Cn1c(=O)c2c3c(sc2n(Cc2ccc(F)cc2)c1=O)CCCC3`: 10.4%.
Regarding `CCCCNC(=O)Nc1nc2ccccc2s1`, the “hERG current change (%, negative = inhibition) at 1uM” value is given as 5.19%.
Then `Cc1nnc2sc(-c3csc4c3CCCC4)nn12`, with 4.8%.
For the molecule `COc1ccccc1NS(=O)(=O)c1ccc(N/N=C/c2ccccc2OCC(=O)O)c([N+](=O)[O-])c1`, the “hERG current change (%, negative = inhibition) at 1uM” value turned out to be 9.02%.
For the molecule `Cc1cccn2cc(CCNC(=O)c3cccs3)nc12`, the “hERG current change (%, negative = inhibition) at 1uM” value was found to be 10.9%.
With `CC(=O)c1c(C)[nH]c(C(=O)N2CCN(S(=O)(=O)c3ccc(C)cc3C)CC2)c1C`, the “hERG current change (%, negative = inhibition) at 1uM” value stood at 8.35%.
Then `CCN(CC)C(=O)CSc1ncnc2c1nnn2-c1ccc(F)cc1`, with 10.3%; and `O=C1c2sc3nc4c(c(=O)n3c2C(=O)N1c1ccccc1)CCC4`, with 12.3%; and `O=C(CN(C(=O)c1csnn1)c1cccc(F)c1)NC1CCCC1`, with 20.2%.
Turning to `Cn1c(NNC(=O)c2cccc3ccccc23)cc(=O)n(C)c1=O`, the “hERG current change (%, negative = inhibition) at 1uM” value was determined as 5.77%.
Then `COc1ccc(NC(=O)c2cccnc2C(=O)O)c(OC)c1`, with 16.8%; and `N#CCc1ccc(NC(=O)c2ccc(S(=O)(=O)N3CCOCC3)cc2)cc1`, with 9.26%; and `Cc1[nH]c2ccccc2c1C(=O)CSc1nc2ccccc2[nH]1`, with 13.2%.
Then `FC(F)(F)c1cccc(NC(=S)NNC(=S)Nc2cccc(C(F)(F)F)c2)c1`, with 16.8%; and `O=C(COC(=O)/C(=C/c1cccs1)c1cccs1)NC(c1ccccc1)c1ccccc1`, with 8.44%; and `Cc1nc2ccccc2nc1OCC(=O)Nc1ccc2ccccc2c1`, with 11.6%.
As to `OC(c1ccc(F)cc1)C(CN1CCOCC1)c1ccccc1` (centres unmarked), the “hERG current change (%, negative = inhibition) at 1uM” value is on record as 12.4%.
`CN1CCN(C(=O)C2CC(=O)N(c3ccc(Cl)cc3)C2)CC1` (centres unmarked): the “hERG current change (%, negative = inhibition) at 1uM” value was -0.519%.
The same measure for `Br.NS(=O)(=O)c1ccc(Nc2nc(-c3cccc([N+](=O)[O-])c3)cs2)cc1`: 9.19%.
Turning to `Cn1cccc1Cc1nnc(SCC(=O)NC2CCCCC2)n1-c1ccc(F)cc1`, the “hERG current change (%, negative = inhibition) at 1uM” value is given as 2.44%.
Then `Cc1ccc(S(=O)(=O)N2CCN(C(=O)COC(=O)CNC(=O)c3ccccc3)CC2)c(C)c1`, with 5.56%.
The same measure for `COc1cc2nc(Cl)nc(N3CCCCC3)c2cc1OC`: 6.38%; for `COc1ccc(CCNCC(O)Cn2c3ccccc3c3ccccc32)cc1OC` (centres unmarked): 18.5%.
The same measure for `Cn1cc(/C=N/NC(N)=S)c2ccccc21`: 9.98%; for `Cc1ccc(NC(=O)CN2C(=O)NC(Cc3c[nH]c4ccccc34)C2=O)cc1S(=O)(=O)N1CCCCC1` (centres unmarked): -8.36%; for `Cc1cc(=O)oc2c(C)c(OCC(=O)N3C[C@H]4C[C@@H](C3)c3cccc(=O)n3C4)ccc12`: 0.758%.
Turning to `Cc1cc(C)c2c(CN3CCN(Cc4ccc5c(c4)OCO5)CC3)cc(=O)oc2c1C`, the “hERG current change (%, negative = inhibition) at 1uM” value amounted to 2.67%.
For `CCN(C(=O)c1ccco1)c1nc(CC(=O)Nc2ccc(Cl)cc2)cs1`, the “hERG current change (%, negative = inhibition) at 1uM” value is listed as 9.87%.
Then `O=C(COc1ccccc1O)Nc1ccc(Cl)cc1`, with 8.37%; and `COc1ccccc1C(CNC(=O)c1ccc(NS(=O)(=O)c2ccc(F)c(C)c2)cc1)N(C)C` (centres unmarked), with 1.09%; and `O=C(CSc1nc2ccccc2c(=O)n1-c1ccccc1)NCC1CCCO1` (centres unmarked), with 18.1%.
Consider `CSc1ncc(C(=O)Nc2cccc(C)c2C)c(C)n1`, for which the “hERG current change (%, negative = inhibition) at 1uM” value amounted to 4.46%.
As to `CC(=O)c1ccccc1NC(=O)COC(=O)/C=C/c1ccc(C)o1`, the “hERG current change (%, negative = inhibition) at 1uM” value was found to be 4.12%.
The same measure for `Cc1c(NC(=O)C(C)OC(=O)COc2ccc(C#N)cc2)c(=O)n(-c2ccccc2)n1C` (centres unmarked): -15%; for `CCOC(=O)c1cnc(Nc2ccc(OCC)cc2)nc1C`: 13%.
On to `N#CC(C(=O)NCCc1ccccc1)c1nc2ccccc2nc1N1CCCCC1` (centres unmarked), for which the “hERG current change (%, negative = inhibition) at 1uM” value is 4.11%.
